Assay results taken from PMC9911399, “Two distinct binding modes provide the RNA-binding protein RbFox with extraordinary sequence specificity”.
Substitutions are numbered along the chain they refer to; changes in the protein carry UniProt numbers. Some of the results follow.

T1: RBFOX1 RRM (Homo sapiens, UniProt Q9NWB1 109-208)
T1 sequence: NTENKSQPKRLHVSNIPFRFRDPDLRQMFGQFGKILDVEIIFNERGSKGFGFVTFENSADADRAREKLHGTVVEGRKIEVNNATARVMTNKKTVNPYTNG

B1: GACGACG (DNA:RNA)
RNA: GGGAGACCGGAAUUCAGAUUGUCCGACGACGUUAAAUCCCGUCGUAGCCACCA
DNA 1: CAATCTGAATTCCGGTCTCCC
DNA 2: TGGTGGCTACGACGGGATT
B2: CUUAUGC (DNA:RNA)
RNA: GGGAGACCGGAAUUCAGAUUGUCCCUUAUGCUUAAAUCCCGUCGUAGCCACCA
DNA 1: CAATCTGAATTCCGGTCTCCC
DNA 2: TGGTGGCTACGACGGGATT
B3: GCAUGCU (DNA:RNA)
RNA: B1 RNA with A26C, C27A, G28U, A29G, G31U
DNA 1: CAATCTGAATTCCGGTCTCCC
DNA 2: TGGTGGCTACGACGGGATT
B4: AUUAGUU (DNA:RNA)
RNA: B2 RNA with C25A, U29G, G30U, C31U
DNA 1: CAATCTGAATTCCGGTCTCCC
DNA 2: TGGTGGCTACGACGGGATT
B5: UUUGCAU (DNA:RNA)
RNA: B2 RNA with C25U, A28G, U29C, G30A, C31U
DNA 1: CAATCTGAATTCCGGTCTCCC
DNA 2: TGGTGGCTACGACGGGATT
B6: UUAUGCC (DNA:RNA)
RNA: B2 RNA with C25U, U27A, A28U, U29G, G30C
DNA 1: CAATCTGAATTCCGGTCTCCC
DNA 2: TGGTGGCTACGACGGGATT
B7: AAGUCCC (DNA:RNA)
RNA: B1 RNA with G25A, C27G, G28U, A29C, G31C
DNA 1: CAATCTGAATTCCGGTCTCCC
DNA 2: TGGTGGCTACGACGGGATT
B8: AUGGGUA (DNA:RNA)
RNA: B2 RNA with C25A, U27G, A28G, U29G, G30U, C31A
DNA 1: CAATCTGAATTCCGGTCTCCC
DNA 2: TGGTGGCTACGACGGGATT
B9: UCGACUA (DNA:RNA)
RNA: B2 RNA with C25U, U26C, U27G, U29C, G30U, C31A
DNA 1: CAATCTGAATTCCGGTCTCCC
DNA 2: TGGTGGCTACGACGGGATT
B10: CGUGCCA (DNA:RNA)
RNA: B2 RNA with U26G, A28G, U29C, G30C, C31A
DNA 1: CAATCTGAATTCCGGTCTCCC
DNA 2: TGGTGGCTACGACGGGATT
B11: UCAUUGU (DNA:RNA)
RNA: B2 RNA with C25U, U26C, U27A, A28U, C31U
DNA 1: CAATCTGAATTCCGGTCTCCC
DNA 2: TGGTGGCTACGACGGGATT
B12: GCAACUU (DNA:RNA)
RNA: B2 RNA with C25G, U26C, U27A, U29C, G30U, C31U
DNA 1: CAATCTGAATTCCGGTCTCCC
DNA 2: TGGTGGCTACGACGGGATT
B13: GAAUCGG (DNA:RNA)
RNA: B1 RNA with C27A, G28U, A29C, C30G
DNA 1: CAATCTGAATTCCGGTCTCCC
DNA 2: TGGTGGCTACGACGGGATT
B14: UCGGCCU (DNA:RNA)
RNA: B1 RNA with G25U, A26C, C27G, A29C, G31U
DNA 1: CAATCTGAATTCCGGTCTCCC
DNA 2: TGGTGGCTACGACGGGATT
B15: UUUAUAA (DNA:RNA)
RNA: B2 RNA with C25U, G30A, C31A
DNA 1: CAATCTGAATTCCGGTCTCCC
DNA 2: TGGTGGCTACGACGGGATT
B16: CUCUUCG (DNA:RNA)
RNA: B2 RNA with U27C, A28U, G30C, C31G
DNA 1: CAATCTGAATTCCGGTCTCCC
DNA 2: TGGTGGCTACGACGGGATT
B17: CAUAGCG (DNA:RNA)
RNA: B2 RNA with U26A, U29G, G30C, C31G
DNA 1: CAATCTGAATTCCGGTCTCCC
DNA 2: TGGTGGCTACGACGGGATT
B18: CAUCCCU (DNA:RNA)
RNA: B2 RNA with U26A, A28C, U29C, G30C, C31U
DNA 1: CAATCTGAATTCCGGTCTCCC
DNA 2: TGGTGGCTACGACGGGATT
B19: GUGUGAC (DNA:RNA)
RNA: B2 RNA with C25G, U27G, A28U, U29G, G30A
DNA 1: CAATCTGAATTCCGGTCTCCC
DNA 2: TGGTGGCTACGACGGGATT
B20: GCUGCGC (DNA:RNA)
RNA: B2 RNA with C25G, U26C, A28G, U29C
DNA 1: CAATCTGAATTCCGGTCTCCC
DNA 2: TGGTGGCTACGACGGGATT

Target: T1, RBFOX1 RRM
Experiment: EMSA; HiTS-Eq, 1 nM pool, 10 min; buffer printed only for the single-RNA assays: 10 mM Tris pH 7.5, 150 mM NaCl, 3.4 mM EDTA, 0.001% NP-40, 30 C
Details: tags: His6 N-terminal (pET28a); label: 5' 32P
How it was run: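 These values rest on relative association constants, computed from read-count changes of each RNA species versus the control reaction and normalised to the cognate motif. Reads came from free RNA recovered by 8% native PAGE after purified RbFox RRM (wild type or mutant) at increasing concentrations was equilibrated for 10 min in 50 µL with 1 nM of a 5′-radiolabelled pool with 7 randomized nucleotides and DNA-annealed flanks.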

Binder	binding signal
B1	0.0136 KA relative to UGCAUGU
B2	0.0123 KA relative to UGCAUGU
B3	0.779 KA relative to UGCAUGU
B4	0.00711 KA relative to UGCAUGU
B5	0.0269 KA relative to UGCAUGU
B6	0.00859 KA relative to UGCAUGU
B7	0.00273 KA relative to UGCAUGU
B8	0.0151 KA relative to UGCAUGU
B9	0.00732 KA relative to UGCAUGU
B10	0.0114 KA relative to UGCAUGU
B11	0.012 KA relative to UGCAUGU
B12	0.00823 KA relative to UGCAUGU
B13	0.0076 KA relative to UGCAUGU
B14	0.0155 KA relative to UGCAUGU
B15	0.00219 KA relative to UGCAUGU
B16	0.0117 KA relative to UGCAUGU
B17	0.00504 KA relative to UGCAUGU
B18	0.00062 KA relative to UGCAUGU
B19	0.00747 KA relative to UGCAUGU
B20	0.0204 KA relative to UGCAUGU
